The record followed here is PubChem BioAssay (NCI).

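Protocol summary: plate cells (96-well), add compound at 5 concentrations, incubate 48 h, interpolate endpoints linearly. Here, GI50 denotes the concentration required for 50% inhibition of growth. TGI: total growth inhibition.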

For this experiment, the system named is NCI-H322M lung. Briefly: NCI anticancer screen, dose series, 48 h.
`N#CC(=S)Nc1cccc(Cl)c1` had a TGI of over 100 µM.

Regarding `CCn1c(O)c(C(=O)NC(C)c2ccc([N+](=O)[O-])cc2)c(=O)n(CC)c1=S` (configuration not stated), the TGI amounted to 12.5 µM.

In turn, `Cc1ccc(Cl)c2c(=O)cc(-c3ccccc3)[nH]c12` displayed a TGI of over 100 µM.

For the compound `O=c1cccc(C#CC#C[C@H]2O[C@@H]2CO)o1`, the GI50 was 2.49 µM and the TGI came out at 6.19 µM.

As to `C[C@@H]1C=C(CCCCCCCCCCC[C@H](O)[C@@H]2CCC(=O)O2)C(=O)O1`, the GI50 was 42.4 µM and the TGI was over 100 µM.

`Clc1ccc(Cl)c2[s+]snc12` registered a TGI of over 100 µM.

With `CC(=O)Nc1ccc(/C=C/[N+](=O)[O-])cc1`, the TGI stood at 24.9 µM.

Turning to `CN(C)CCCn1c2c(c3cnccc3c1=O)C(=O)c1ccccc1-2`, the GI50 is 0.479 µM and the TGI is 3.03 µM.

For `Oc1ccc(/C=N\Nc2ccccn2)c(O)c1`, the GI50 was 0.859 µM and the TGI turned out to be 5.38 µM.

`COc1ccc(-c2cc(-c3ccc(OC)c(OC)c3)nc(SCCCC(=O)NO)n2)cc1`: the GI50 is 1.59 µM and the TGI stood at 7.49 µM.

On to `CC(=O)OC1C(=O)C(O)C(C)OC1O[C@@H]1C[C@@]2(C)[C@@H]3CC=C4[C@@H](C[C@H](O)C(=O)C4(C)C)[C@]3(C)C(=O)C[C@]2(C)[C@H]1[C@@](C)(O)C(=O)/C=C/C(C)(C)O` (some centres not stated), for which the TGI was over 10 µM.

On to `C(=N\Nc1ccccn1)/c1ccccn1`, for which the GI50 is 0.267 µM and the TGI is over 100 µM.

Regarding `S=c1oc(CCCCCCCCc2nn(CNc3ccc(Cl)cc3)c(=S)o2)nn1CNc1ccc(Cl)cc1`, the TGI was over 100 µM.

Consider `Oc1ccc(O)c(Sc2nnc(CCCCCCCCc3nnc(Sc4cc(O)ccc4O)o3)o2)c1`, for which the TGI was over 100 µM.

In the case of `CC(C)CCCC(C)[C@H]1CC[C@H]2NCCCC[C@]12C` (some centres not stated), the TGI is 12.4 µM.

In the case of `COC(CC1(CCNc2ccccc2)C(=O)N(COCC[Si](C)(C)C)c2ccccc21)OC` (configuration not stated), the TGI was 30.6 µM.
